PMC4242493
The other results are listed elsewhere or left out. The list includes weakly bound sequences.

target: MaxL homodimer (UniProt P61244); test: universal protein-binding microarray (PBM); settings: PBS-based mixture, 10 nM His-tagged protein dimer, 2% milk, 200 ng/uL BSA, 50 ng/uL salmon testes DNA, 0.02% TX-100; detection with Alexa 488 anti-His …; high values mean tight binding; most listed sequences are background and not binding sites; double strand, one strand shown
UniProt P61244, sequence (P61244 whole entry): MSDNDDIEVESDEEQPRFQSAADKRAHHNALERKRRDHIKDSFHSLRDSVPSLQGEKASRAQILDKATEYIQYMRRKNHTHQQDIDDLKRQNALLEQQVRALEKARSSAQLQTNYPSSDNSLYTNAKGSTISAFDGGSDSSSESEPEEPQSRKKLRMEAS

| Sequence | binding signal (normalized occupancy) |
| --- | --- |
| AGGGCAAC | 0.0704 |
| CTCCAACC | 0.0736 |
| ATAAAGCA | 0.0811 |
| GTGTGGCA | 0.0843 |
| CCATCCTC | 0.0722 |
| AGGCACAG | 0.075 |
| CCCTGAGG | 0.0704 |
| CACCGAAA | 0.0748 |
| TCCTTCCA | 0.0795 |
| GGTGAAAA | 0.0772 |
| CGCATCTC | 0.0769 |
| ACAAGATC | 0.0745 |
| GTCCTCAA | 0.0714 |
| TCACGTCA | 0.0819 |
| ACAGTCCG | 0.0714 |
| AGCTAGCA | 0.0662 |
| ACCAGGAT | 0.0773 |
| ATCGGACA | 0.0773 |
| AGCAAGGG | 0.072 |
| CGGGTTCA | 0.07 |
| CACTCACC | 0.0734 |
| TATTTTGA | 0.0768 |
| GACACGGC | 0.0778 |
| CTAGTACA | 0.0796 |

| Sequence | binding signal (normalized occupancy) |
| --- | --- |
| ATGTGCGA | 0.0863 |
| CCATATGG | 0.123 |
| CCCGCAAA | 0.0729 |
| CGGCTATA | 0.07 |
| GGAAGGAA | 0.0718 |
| AGGCAACT | 0.075 |
| TATCGATA | 0.0806 |
| GCCTCCGC | 0.0623 |
| AGGTGTGA | 0.0887 |
| CTCAGACC | 0.0694 |
| CGCATCGA | 0.0801 |
| CATCACAA | 0.0823 |
| CGCTCTGA | 0.0752 |
| GAGACATA | 0.0802 |
| GATTTACC | 0.0744 |
| ATCGTGGC | 0.086 |
| CAACGTCA | 0.0743 |
| TACAGGGA | 0.0781 |
| ACGGAACC | 0.0721 |
| ATCCTACA | 0.0764 |
| GACGTAAA | 0.0701 |
| AAGCTGTA | 0.0738 |
| AATGGATG | 0.0803 |
| CTTCCTGA | 0.073 |

| Sequence | binding signal (normalized occupancy) |
| --- | --- |
| AGAGCGAG | 0.0719 |
| GTGTCACA | 0.0836 |
| GGGTACCC | 0.0733 |
| GTGTGGTA | 0.0868 |
| CTGTGCCA | 0.067 |
| CTGGGTTA | 0.0751 |
| CCAAGAGA | 0.0718 |
| GGCAAGTA | 0.0715 |
| ACGCTTAC | 0.0783 |
| GATAGGGC | 0.074 |
| ATCCGACG | 0.0742 |
| AGAATTGC | 0.077 |
| ACCGGTGG | 0.0713 |
| ATGACGGC | 0.0785 |
| GGTAGTGA | 0.0804 |
| CAAATCGG | 0.0668 |
| ATCATATA | 0.0893 |
| CGCCCTTA | 0.0709 |
| AAGACACA | 0.0794 |
| GGGTGCCA | 0.0807 |
| CTATTTCC | 0.0807 |
| GAAGTCTC | 0.0775 |
| AGGCTCAC | 0.0818 |
| CTTAGGAA | 0.0761 |

| Sequence | binding signal (normalized occupancy) |
| --- | --- |
| CGGCCCCC | 0.0709 |
| CGTGCATC | 0.0891 |
| AATGAACT | 0.0716 |
| GCGATCAA | 0.0763 |
| CATGGATC | 0.0868 |
| AATATGGC | 0.0866 |
| GCAGTGCC | 0.0683 |
| AGGACCAG | 0.0714 |
| GGCCAGAA | 0.0712 |
| GGCATGCC | 0.0932 |
| ATAACTAA | 0.0784 |
| GCACGTTA | 0.104 |
| GATATAGC | 0.0839 |
| CTAGAGGC | 0.0728 |
| AGTCTTCC | 0.0722 |
| CGTACACC | 0.0782 |
| CCCAGATA | 0.0753 |
| ATACGGGG | 0.0804 |
| ACGGCCCC | 0.0738 |
| CGCAGCAA | 0.0688 |
| ATCGAAGC | 0.0686 |
| GGGAAATA | 0.0838 |
